Experimental data: the supplement of paper PMC8728848
The sample as a whole holds a higher share of the strongest signals than the screen did.

tested on: Fuc(a1-2)[Gal(a1-4)]Gal(b1-4)GlcNAc; experiment: glycan array binding signal (z-score within array); higher = stronger binding; conditions: glycan notation: IUPAC condensed, linker removed
Method in brief: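 Columns mapping to the same glycan were averaged after glycan names were converted to IUPAC-condensed notation. The data come from 3228 arrays in the Consortium for Functional Glycomics database, limited to those with an available protein sequence. Binding is reported as a within-array Z-score averaged across arrays of one protein sequence and across linkers.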

Row | Substance | glycan array binding signal (z-score)
1 | Collectin K1 (Homo sapiens) (chain not printed) | -0.232
2 | Gal 8 long (Homo sapiens) (chain not printed) | 2.77
3 | M-Ficolin (Homo sapiens) (chain not printed) | -0.256
